Measured values as given in publication PMC4336329 (PLoS ONE, 2015).
In all, about 310,000 compounds went through this assay and about 2,200 (0.71%) showed an effect of 50% or more. The effect is printed as a negative number. The list shows a part of the results.

Molecular target: human ether-à-go-go-related gene (hERG) potassium channel (human, UniProt Q12809)
Test: primary screen, population patch clamp on CHO cells stably expressing hERG

human ether-à-go-go-related gene (hERG) potassium channel, sequence (Q12809 whole entry, looked up): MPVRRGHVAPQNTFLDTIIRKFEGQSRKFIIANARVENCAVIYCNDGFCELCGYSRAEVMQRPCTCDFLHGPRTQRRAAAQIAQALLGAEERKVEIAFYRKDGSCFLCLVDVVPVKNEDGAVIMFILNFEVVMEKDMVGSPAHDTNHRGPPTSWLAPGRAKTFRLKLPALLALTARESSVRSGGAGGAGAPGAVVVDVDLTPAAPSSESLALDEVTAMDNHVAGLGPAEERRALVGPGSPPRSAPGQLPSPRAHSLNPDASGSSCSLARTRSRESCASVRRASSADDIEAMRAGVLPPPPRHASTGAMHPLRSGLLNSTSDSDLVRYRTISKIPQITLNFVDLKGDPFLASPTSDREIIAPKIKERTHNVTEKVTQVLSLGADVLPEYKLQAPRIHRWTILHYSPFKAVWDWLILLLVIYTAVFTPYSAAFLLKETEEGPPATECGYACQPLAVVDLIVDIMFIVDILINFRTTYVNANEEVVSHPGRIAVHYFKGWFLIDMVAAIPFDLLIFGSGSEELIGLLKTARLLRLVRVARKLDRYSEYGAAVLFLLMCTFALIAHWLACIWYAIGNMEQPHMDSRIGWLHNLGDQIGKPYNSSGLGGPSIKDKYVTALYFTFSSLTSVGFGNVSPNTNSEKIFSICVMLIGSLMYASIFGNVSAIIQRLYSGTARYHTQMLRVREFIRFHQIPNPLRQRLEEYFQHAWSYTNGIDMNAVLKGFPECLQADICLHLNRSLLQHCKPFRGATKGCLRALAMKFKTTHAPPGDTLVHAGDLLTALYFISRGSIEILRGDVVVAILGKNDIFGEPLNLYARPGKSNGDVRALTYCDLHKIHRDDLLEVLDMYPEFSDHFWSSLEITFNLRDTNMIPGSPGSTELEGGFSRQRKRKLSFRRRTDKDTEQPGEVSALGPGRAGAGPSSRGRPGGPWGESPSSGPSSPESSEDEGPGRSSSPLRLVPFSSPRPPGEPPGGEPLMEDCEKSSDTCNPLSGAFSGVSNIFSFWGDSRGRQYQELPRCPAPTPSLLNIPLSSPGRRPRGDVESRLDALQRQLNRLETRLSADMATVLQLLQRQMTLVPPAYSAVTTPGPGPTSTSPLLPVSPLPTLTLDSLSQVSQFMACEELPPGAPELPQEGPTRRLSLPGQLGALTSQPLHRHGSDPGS

SMILES	hERG current change (%, negative = inhibition) at 1uM [%]
O=C(NCc1ccncc1)NC1CCCCC1	15.1
Cc1c(NC(=O)C(C)Sc2ccc3ccccc3n2)c(=O)n(-c2ccccc2)n1C (stereo not shown)	5.02
C=CCN1C(=O)CN=C1Nc1ccccc1	17.4
COc1cc(NC(=O)COC(=O)c2cc(S(=O)(=O)N3CCCCC3)ccc2Cl)c(C)cc1[N+](=O)[O-]	5.74
COc1cc2c(cc1OC)C(c1ccccc1)NC(C)(C)C2.Cl (stereo not shown)	11.3
CCSc1nnc(-c2cc(Br)ccc2NC(C)=O)c(=O)[nH]1	1.1
CCNC(=S)Nc1cc(OCC)c(NC(=O)c2cccs2)cc1OCC	14
CC(=O)N1CCN(C(=O)c2ccc(OC3CCN(CCc4ccccc4)CC3)cc2)CC1	14.6
COc1ccccc1N1CC(C(=O)NCCC2=CCCCC2)CC1=O (stereo not shown)	6.21
CCOC(=O)N(NC(=O)C(O)(c1ccccc1)c1ccccc1)c1ccccc1	5.1
Cc1c(C(=O)Nc2ccc3c(c2)OCO3)sc2ncn(CC(=O)N3CC(C)CC(C)C3)c(=O)c12 (stereo not shown)	-10.2
Cc1ccc2nc(Cl)c(CN(Cc3cccs3)C(=O)C3CC3)cc2c1	15.8
Cc1ccc(O)c(CNc2cccc3cccnc23)c1	-4.05
CC1CCC2(CC1)NC(=O)N(CC(=O)Nc1ccc3[nH]c(=O)[nH]c3c1)C2=O (stereo not shown)	5.93
CN(C)CCSc1nnc2[nH]c3ccccc3c2n1.Cl	-1.53
COc1ccc(CCN=Cc2ccccc2O)cc1OC	8.06
Cc1ccc(C(C)C)c(OCC(O)CN2CCOCC2)c1 (stereo not shown)	11.8
CC(=O)Nc1ccc(S(=O)(=O)Nc2ccc3c(c2)OCO3)cc1	15.1
COc1ccc(C(=O)N/C(=C\c2ccccc2)C(=O)NCc2cccnc2)cc1	-16
CCOC(=O)CSc1nnc(CSc2nc(C)cc(C)n2)n1Cc1ccco1	12.4
NC1=NC(=O)/C(=C/c2cn(CCC(=O)O)nc2-c2ccc(Cl)cc2)S1	9.19
COC(=O)C1=C(C)N(C)C(=O)NC1c1cc2c(cc1[N+](=O)[O-])OCO2 (stereo not shown)	5.41

SMILES	hERG current change (%, negative = inhibition) at 1uM [%]
CCc1nnc(N/N=C/c2c(Cl)cccc2Cl)n1N	7.24
COc1cc(C(CC(=O)Nc2ccccn2)N2Cc3ccccc3C2=O)cc(OC)c1OC (stereo not shown)	6.15
CC1OC(NCCc2ccccc2)C(O)C(O)C1O (stereo not shown)	-1.88
Cc1cc(C)c2nc(-c3ccccn3)cc(C(=O)Nn3cnnc3)c2c1	8.55
Cc1ccccc1C(=O)NC(=S)Nc1ccc(S(=O)(=O)N2CCOCC2)cc1	-6.86
Cc1ccc(-c2csc(N3CCN(S(=O)(=O)c4ccc5c(c4)NC(=O)CO5)CC3)n2)cc1	15.7
CCCCCCC(O)(c1ccccc1)C(CN1CCOCC1)c1ccccc1.Cl (stereo not shown)	13.2
Cc1ccc(C)n1NC(=O)c1ccccc1Cl	7.68
N/C(=N\OC(=O)/C=C/c1ccccc1)c1ccc(Cl)cc1	2.94
CCC(C(=O)NC(C)(C)C)N(C(=O)Cn1nnc(-c2cccs2)n1)c1cnc2ccccc2c1 (stereo not shown)	18.3
Cc1nnc(C)n1/N=C/c1ccc(-c2ccccc2Cl)o1	3.88
O=C1CCCc2nc(N3CCN(Cc4ccccc4)CC3)ncc21	11.8
COc1ccc(CNC(=O)C(c2ccncc2)N(C(=O)Cc2cccs2)c2cccnc2)cc1 (stereo not shown)	5.37
CCOC(=O)c1c(-c2ccccc2)oc2ccc(OC(C)=O)cc12	21.8
Fc1ccccc1N1CCN(c2cnc3ccccc3n2)CC1	12.3
CCC(c1nnc(SCC(=O)Nc2ccc(C(=O)N(C)C)cc2)n1Cc1ccccc1)N(C)C (stereo not shown)	5.24
O=C(COC(=O)/C=C/c1cccc(Cl)c1)NC(=O)NCc1ccccc1	0.487
NC(=O)C1CCN(C(=O)CCn2c(=O)oc3ccccc32)CC1	4.62
Cc1[nH]c(=O)[nH]c(=O)c1/C=N/NC(=O)CCNC(=O)OC(C)(C)C	0.692
CCc1cc(-c2n[nH]c(C)c2Oc2ccc(C(C)C)cc2)c(O)cc1O	3.89
Cc1cccc(NC2=NC(=S)N(c3ccc(C(=O)O)cc3)C23CCCCC3)c1	15.7
COc1cccc(/C=N/NC(=O)c2cc(-c3cccn3C)n[nH]2)c1O	5.96

SMILES	hERG current change (%, negative = inhibition) at 1uM [%]
CC1(C)O[C@@H]2[C@H](O1)[C@@H](CO)O[C@H]2n1cnc2c(N)ncnc21	10.8
Cc1ccc(C(=O)COc2nc(C)cc(C)c2C#N)cc1	-2.47
Cc1ccc(-c2cc(C(=O)NCc3cccs3)no2)cc1	6.37
COc1cc(OC)cc(OCC(O)Cn2ccnc2C)c1 (stereo not shown)	7.8
COc1ccc(/C=N/Nc2c(Cl)cc(Cl)cc2Cl)cc1CN1CCOCC1	8.11
COc1ccc(CCNS(=O)(=O)c2ccccc2)cc1OC	11.8
Cc1nn(C)cc1CNC(=O)C1(C)CC1(Cl)Cl (stereo not shown)	17
CCOc1ccc2nc(SCC(=O)N(C)C)[nH]c2c1	15.7
COC(=O)C(Cc1ccc(OC(=O)c2ccc(Cl)cc2)cc1)N1Cc2ccccc2C1=O (stereo not shown)	10.7
CS(=O)(=O)C1=C(O)C(=O)N(CCCC(=O)O)C1c1ccccc1F (stereo not shown)	13.4
COc1ccc(CCn2c(=N)c(C(=O)NC3CCCC3)cc3c(=O)n4ccccc4nc32)cc1OC	-46.9
COc1ccc(CCN2C(=O)C3C4CC(C5C(C(N)=O)=NOC45)C3C2=O)cc1OC (stereo not shown)	1.3
O=C(CSc1ccccc1C(=O)O)NCc1ccc(Cl)cc1	2.7
O=C(NCc1ccccc1)C(c1ccc(Cl)cc1)N(C(=O)c1csnn1)C1CC1 (stereo not shown)	5.99
CC(=O)Nc1ccc(S(=O)(=O)NC(CC(=O)NCCCN2CCOCC2)C(C)C)cc1 (stereo not shown)	9.52
Cc1ccc(S(=O)(=O)N(Cc2cccnc2)Cc2cc3ccccc3[nH]c2=O)cc1	-8.44
CCOc1cc(C(=O)NN=C2CCCC2)cc(OCC)c1OCC	30.2
O=C(NCC1CCCO1)C1CCN(S(=O)(=O)c2cc(Cl)ccc2Cl)CC1 (stereo not shown)	-1.35
CCCN(CCC)CCCNC(=S)Nc1ccc2nc3n(c(=O)c2c1)CCCCC3	13.5
CCCC1(c2ccccc2)NC(=O)N(CC(=O)Nc2ccccc2C(F)(F)F)C1=O (stereo not shown)	2.06
COC(=O)c1ccc(S(=O)(=O)N(C2CCCCC2)C2CCCCC2)n1C	2.78
COc1ccc(Nc2nc3ccccc3nc2-n2nc(C)cc2C)cc1	0.379

SMILES	hERG current change (%, negative = inhibition) at 1uM [%]
COc1cc(-c2ccc(NC(C)=O)c(OC)c2)ccc1NC(C)=O	1.37
O=C(CSc1ccc(Cl)cc1)Nn1cnnc1	1.19
Cc1ccc(CC(NC(=O)c2ccccc2)C(=O)NC(C)C(=O)O)cc1 (stereo not shown)	5.25
O=C(O)CCC(=O)N1CCc2cc(S(=O)(=O)N3CCCCC3)ccc21	13.1
O=C(O)c1cc(N/N=C/c2cccnc2)ccc1Cl	-7.47
COc1cccc(C(=O)COC(=O)C(C)N2C(=O)C3C4C=CC(C4)C3C2=O)c1 (stereo not shown)	5.43
O=C(O)c1c(F)c(F)c(F)c(F)c1-c1ccc(Cl)cc1	12.4
COC(=O)C1=C(c2ccc3ccccc3c2)C[C@@H]2CC[C@H]1N2C(=O)N1CCOCC1	4.17
COc1cc([N+](=O)[O-])ccc1-c1ccc(/C=N/NC(=O)OC(C)(C)C)o1	11.7
COc1ccc2c(c1)C(=O)N(CCc1ccc(S(=O)(=O)NC(=O)NC3CCCCC3)cc1)C(=O)C2(C)C	7.24
O=C(Cn1ncc2c(=O)oc3ccccc3c21)NC1CC1	12.2
CCCOc1cccc(C(=O)NC(=S)Nc2cccc(C(F)(F)F)c2)c1	14.4
COc1cc2c(cc1OC)CN(C1CC(=O)N(c3c(C)cccc3C)C1=O)CC2 (stereo not shown)	12
Cc1cc(=O)oc2cc(OCC(=O)NCc3ccncc3)ccc12	-1.77
C/C(=N\NC(=O)c1cc(O)cc(O)c1)c1ccc(NC(=O)Cc2ccccc2)cc1	12.4
N#CCCn1cc(C(=O)O)c(-c2cccc([N+](=O)[O-])c2)n1	8.49
COc1ccc(CNC(=O)CN(c2ccccc2)S(=O)(=O)N(C)C)cc1	7.99
CCC(C)Cn1c([O-])cc2nn(-c3nc4ccccc4s3)c(=O)c-2c1C.[Na+] (stereo not shown)	7.81
CCOc1ccc(CN2CCCN(C)CC2)cc1	13.7
O=C1CC[C@@H](OCc2ccccc2)CCN1CC[C@H](Sc1ccccc1)c1ccccc1	4.54
O=C(Nc1cc(F)c(Br)cc1F)c1ccc(Cl)cc1	10.6
O=C1CC2(CCOCC2)Oc2ccc3ccccc3c21	10
